Assay results reported in patent publication US11919886B2, “4,9-dioxo-4,9-dihydronaphtho[2,3-B]furan-3-carboxamide derivatives and uses thereof for treating proliferative diseases and infectious diseases” (Academia Sinica, priority 2016, dated 2024).

System: subcutaneous H1975 tumors
Experiment: H1975 xenograft tumor growth in athymic nude mice (compounds 48 and 49)
Details: 1 mg/kg or 4 mg/kg daily intraperitoneally, 24 days

Row | Structure (SMILES) | H1975 xenograft tumor growth compared with the control group
1 | Cc1c(C(=O)NCCCn2ccnc2)oc2c1C(=O)c1ccccc1C2=O [Compound 49, N-(3-(1H-imidazol-1-yl)propyl)-3-methyl-4,9-dioxo-4,9-dihydronaphtho[2,3-b]furan-2-carboxamide] | marked reduction
2 | Cc1oc2c(c1C(=O)NCCCn1ccnc1)C(=O)c1ccc(F)cc1C2=O [Compound 48, N-(3-(1H-imidazol-1-yl)propyl)-7-fluoro-2-methyl-4,9-dioxo-4,9-dihydronaphtho[2,3-b]furan-3-carboxamide] | marked reduction
